# Experimental data taken from PubChem BioAssay AID1030 (National Center for Advancing Translational Sciences (NCATS), 2008).
# Hit rate of the full screen: of about 220,000 compounds, about 16,000 (7.3%) were called active. This list was built around the results that the source calls inconclusive (neither active nor inactive); the mix of calls is not that of the screen. Calls follow the shape of the dose curve; as a rule, active = well fitted inhibition curve with a large enough effect (not every such curve was filed as active); inconclusive = small, poorly fitted or top-dose-only effect, or another doubt; inactive = no such curve, though single readings can be large or run the other way. No potency is given beside an inconclusive call; the fits are too rough. Some structures have more than one record in an assay (separate samples or runs), and their calls can disagree.
# Target: Aldehyde dehydrogenase 1A1 (Homo sapiens) (UniProt P00352)
# Assay: qHTS Assay for Inhibitors of Aldehyde Dehydrogenase 1 (ALDH1A1);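 as to activity, negative = inhibition: plate controls were no enzyme wells and a reference inhibitor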
# Settings: Purified ALDH1A1, NADH fluorescence, propionaldehyde substrate; series mostly up to 75.3 µM
# Potency is read from the fitted curve at half-maximal effect; tags tell the direction and shape of the fitted curve.
# Sequence of UniProt P00352 (P00352 whole entry, looked up): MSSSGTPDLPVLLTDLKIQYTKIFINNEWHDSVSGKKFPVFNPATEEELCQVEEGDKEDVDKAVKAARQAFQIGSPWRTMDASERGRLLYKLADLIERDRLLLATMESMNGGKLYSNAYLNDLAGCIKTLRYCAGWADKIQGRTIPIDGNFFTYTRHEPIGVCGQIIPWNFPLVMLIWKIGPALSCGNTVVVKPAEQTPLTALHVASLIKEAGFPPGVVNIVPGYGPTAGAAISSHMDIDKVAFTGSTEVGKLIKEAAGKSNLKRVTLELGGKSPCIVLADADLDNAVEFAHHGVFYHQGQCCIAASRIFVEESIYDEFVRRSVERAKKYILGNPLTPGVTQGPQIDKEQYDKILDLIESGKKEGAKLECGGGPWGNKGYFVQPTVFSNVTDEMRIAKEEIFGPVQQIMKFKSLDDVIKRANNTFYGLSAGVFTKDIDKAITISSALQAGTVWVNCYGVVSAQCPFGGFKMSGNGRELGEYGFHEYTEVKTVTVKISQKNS
SMILES,Potency,"activity, negative = inhibition"
O=C(O)c1cc(NCc2c(F)cccc2Cl)ccc1N1CCOCC1,"inconclusive [inhibitor, single point]",
CN(C)CCCN(C(=O)/C=C/c1cccs1)c1nc2ccc(F)cc2s1,inactive,
COC(=O)c1[nH]c2c(c1C)C(=O)CC(c1cccs1)C2 (stereo not given),inactive,
O=C(CSc1nc(-c2ccccc2Cl)ns1)NCc1ccc2c(c1)OCO2,"inconclusive [inhibitor, single point]",
COc1cc2cc3c(N)c(C(=O)Nc4sc(C)c(C)c4C#N)sc3nc2cc1OC,inactive,
O=C(N/N=C/c1cccc(F)c1)c1cc(-c2ccco2)nc2ccccc12,"inconclusive [inhibitor, partial curve]",
Cc1ccccc1Cc1c(C)nc2c(C(=O)NCc3ccc4c(c3)OCO4)cnn2c1C,"inconclusive [inhibitor, partial curve]",
C[N+]1(C)CCc2cc(O)c(O)cc2[C@H]1Cc1ccc(O)c(O)c1,,inactive: 3.72% [at 13.5 µM]
COc1ccc2cc(/C=N/NC(=O)CSCc3ccc([N+](=O)[O-])cc3)c(Cl)nc2c1,"inconclusive [inhibitor, single point]",
Cc1ccc(C(=O)CSc2nnc3c4ccccc4nc(C(C)(C)C)n23)cc1,"inconclusive [inhibitor, single point]",
O=C(CSc1nc2ccccc2c(=O)n1-c1ccccc1)N1CCCc2ccccc21,"inconclusive [inhibitor, single point]",
CCOC(=O)Cc1csc(SCC(=O)NC(C)C23CC4CC(CC(C4)C2)C3)n1 (stereo not given),"inconclusive [inhibitor, partial curve]",
Cc1ccc(CSc2ccc3nnc(-c4cccnc4)n3n2)cc1,"inconclusive [inhibitor, single point]",
COC(c1ccccc1)c1nnc(CCC(=O)NC2CCCCC2)o1 (stereo not given),"inconclusive [inhibitor, single point]",
CC1=NN(c2ccccc2)C(=O)/C1=C\c1ccc(Br)s1,active: 7.94 µM,
CC(C(=O)c1ccc(-c2ccccc2)cc1)[n+]1ccccc1 (stereo not given),"inconclusive [inhibitor, single point]",
COc1cc(C(=O)NC(CCSC)C(=O)OCC(=O)C(C)(C)C)cc(OC)c1OC (stereo not given),"inconclusive [inhibitor, single point]",
O=C(CSC1=NCCS1)Nc1ccc(S(=O)(=O)N2CCCCCC2)cc1,"inconclusive [inhibitor, single point]",
COc1cccc(CC(NC(C)=O)C(=O)NC2CCN(c3nnnn3-c3ccccc3)CC2)c1OC (stereo not given),"inconclusive [inhibitor, partial curve]",
COc1ccc(NC(=S)N/N=C/c2ccc(F)cc2)cc1OC,inactive,
CC1CCN(S(=O)(=O)c2ccc(NC(=O)Cn3nnc(-c4ccccc4)n3)cc2)CC1,inactive,
Fc1ccc(C2=CSC3=NCCN23)cc1,inactive,
COC(=O)c1c(NC(=O)CN(c2ccc(C)c(C)c2)S(C)(=O)=O)sc2c1CCCC2,inactive,
O=C1CC(N2CCN(c3cccc(C(F)(F)F)c3)CC2)C(=O)N1c1ccccc1F (stereo not given),active: 20 µM,

SMILES,Potency,"activity, negative = inhibition"
CC(C)CC(=O)NC(=S)NNC(=O)c1ccc(NC(=O)C2CCCCC2)cc1,inactive,
COc1ccccc1NC(=O)c1ccc(-n2cccn2)c([N+](=O)[O-])c1,active: 25.1 µM,
CC(C)c1cc(C(=O)N2CCN(C(c3ccccc3)c3ccccc3)CC2)no1,"inconclusive [inhibitor, single point]",
Cc1ccccc1COC(=O)c1nn(-c2ccccc2)nc1N,"inconclusive [inhibitor, partial curve]",
Brc1ccc(-c2noc(COc3ccc4c(c3)CCC4)n2)o1,inactive,
CCOc1ccc(NC(=S)N(CCCN2CCOCC2)Cc2cn(C)c3ccccc23)cc1,active: 3.98 µM,
COc1ccccc1NC(=O)c1cc(Cl)nc2ccccc12,"inconclusive [inhibitor, single point]",
Cc1ccc(OCc2nnc(SCC(=O)Nc3ccc4c(c3)OCCO4)n2Cc2ccco2)cc1,"inconclusive [inhibitor, single point]",
N[C@@H](Cc1cc(I)c(Oc2ccc(O)c(I)c2)c(I)c1)C(=O)O,active: 6.31 µM,
COC(=O)CN1C(=O)CSc2ncccc21,"inconclusive [inhibitor, single point]",
COc1ccc(Cc2nn3c(Cn4nnc5ccccc54)nnc3s2)cc1,active: 11.2 µM,
Cc1cc(=O)oc2cc(O[C@@H]3O[C@H](C(=O)O)[C@@H](O)[C@H](O)[C@H]3O)ccc12,"inconclusive [inhibitor, single point]",
N#CC1=C(O)C(c2ccccc2)n2c1nc(=O)c1ccccc12 (stereo not given),"inconclusive [inhibitor, partial curve]",
Cn1nc(-c2ccc(C(=O)Nc3cccc(Cl)c3)cc2)c2ccccc2c1=O,inactive,
COc1ccc(NC(=O)c2cc(C)n(Cc3cccs3)c2C)cc1,"inconclusive [inhibitor, single point]",
CCOC(=O)c1cc2occc2n1Cc1c(F)cccc1Cl,"inconclusive [inhibitor, single point]",
Cc1ccccc1C1CC(c2ccccc2)Nc2ncnn21 (stereo not given),"inconclusive [inhibitor, single point]",
O=C(CSc1cccc[n+]1[O-])NC1CCCCCCC1,inactive,
FC(F)(F)c1ccc(CN2C[C@@H]3C(c4ccccc4)C4(c5cccnc5)CC3(C4)[C@H]2c2ccccc2)cc1 (stereo not given in full),"inconclusive [inhibitor, single point]",
COc1ccc(CN(C(=S)Nc2ccccc2)C2CC(=O)N(c3ccc(Cl)cc3)C2=O)cc1 (stereo not given),active: 7.08 µM,
O=C(COC(=O)c1cccc2ccccc12)NCC1CCCO1 (stereo not given),"inconclusive [inhibitor, single point]",
CCN(C(=O)c1ccc(Cl)cc1[N+](=O)[O-])c1ccccc1C,inactive,
CCCCNC(=O)Nc1cc(C(F)(F)F)c[nH]c1=O,"inconclusive [inhibitor, partial curve]",
CN(C)c1ccnc(N(Cc2ccccc2)Cc2ccccc2)c1C#N,"inconclusive [inhibitor, single point]",

SMILES,Potency,"activity, negative = inhibition"
CC1=CC2=NC(=O)/C(=C\c3ccc(-c4cccc(Cl)c4)o3)C(=N)N2O1,"inconclusive [inhibitor, single point]",
COc1cccc(-c2cc(C(=O)N3C(C)CCCC3C)no2)c1 (stereo not given),"inconclusive [inhibitor, single point]",
COc1ccc(CN2CCNC(=O)C2CC(=O)N(C)Cc2ccccn2)cc1OC (stereo not given),"inconclusive [inhibitor, single point]",
Nc1ncn([C@H]2O[C@@H](CO)[C@@H](O)[C@@H]2O)c(=O)n1,inactive,
CC(=O)Nc1ccc(/C=C(\C#N)C(=O)NC2CCCCC2C)cc1 (stereo not given),"inconclusive [inhibitor, single point]",
Cc1ccccc1N1C(=O)c2ccccc2NC1c1ccncc1 (stereo not given),"inconclusive [inhibitor, partial curve]",
CC(C)c1onc(C(=O)N2CCN(Cc3ccccc3)CC2)c1[N+](=O)[O-],active: 2.51 µM,
Cc1ccc(NC(=O)C(C)N=C2NS(=O)(=O)c3ccccc32)cc1 (stereo not given),inactive,
CCN(CC)S(=O)(=O)c1ccc2c(c1)nc(CCC(=O)OCC(=O)Nc1cc(Cl)cc(Cl)c1)n2C,"inconclusive [inhibitor, single point]",
CN(C(=O)COC(=O)c1cc([N+](=O)[O-])ccc1N1CCCC1)C1CCS(=O)(=O)C1 (stereo not given),"inconclusive [inhibitor, partial curve]",
O=c1c2ccccc2nc2n1CCCCN2,"inconclusive [inhibitor, partial curve]",
CCOC(=O)Cc1csc(NC(=S)NC(=O)C(C)(C)C)n1,inactive,
O=C(Oc1nsnc1N1CCOCC1)c1ccccc1,active: 28.2 µM,
COc1cc(C(C2=C(O)CC(C)(C)CC2=O)C2C(=O)CC(C)(C)CC2=O)cc(OC)c1OC (stereo not given),"inconclusive [inhibitor, full curve]",
O=C(c1ccco1)N1CCN(C(=O)C2CC(c3ccc(F)cc3)=NO2)CC1 (stereo not given),inactive,
CCn1c(SCC(=O)OC)nnc1-c1ccncc1,"inconclusive [inhibitor, single point]",
COc1ccc(S(=O)(=O)N2CCC(C(=O)Nc3ccc(F)cc3)CC2)c2cccnc12,"inconclusive [inhibitor, single point]",
Cc1ccn2c(CNCC3OCCc4ccccc43)c(C(=O)N3CCCCCC3)nc2c1 (stereo not given),"inconclusive [inhibitor, partial curve]",
COc1cccc(NC(=S)N2CCCN(Cc3ccc(F)cc3)C2)c1,"inconclusive [inhibitor, partial curve]",
CC1=C(C(=O)OCC2CCCO2)C(c2cccc(C(F)(F)F)c2)C2=C(CC(c3ccco3)CC2=O)N1 (stereo not given),"inconclusive [inhibitor, partial curve]",
O=C(Nc1ccccc1Br)C(=O)N1CCCC1,inactive,
O=S(=O)(c1ccccc1)N1CCN(c2ccnc3cc(Cl)ccc23)CC1,"inconclusive [inhibitor, single point]",
